PMC4336329 (PLoS ONE, 2015)
Out of some 310,000 compounds screened, about 14,000 (4.5%) showed an effect of 50% or more. The effect is printed as a negative number. The list shows a part of the results.

Molecular target: human ether-à-go-go-related gene (hERG) potassium channel (human, UniProt Q12809)
Assay: primary screen, population patch clamp on CHO cells stably expressing hERG
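Further: peak tail current of the secondary pulse compared with the same well before compound.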

Chain of human ether-à-go-go-related gene (hERG) potassium channel (Q12809 whole entry, looked up): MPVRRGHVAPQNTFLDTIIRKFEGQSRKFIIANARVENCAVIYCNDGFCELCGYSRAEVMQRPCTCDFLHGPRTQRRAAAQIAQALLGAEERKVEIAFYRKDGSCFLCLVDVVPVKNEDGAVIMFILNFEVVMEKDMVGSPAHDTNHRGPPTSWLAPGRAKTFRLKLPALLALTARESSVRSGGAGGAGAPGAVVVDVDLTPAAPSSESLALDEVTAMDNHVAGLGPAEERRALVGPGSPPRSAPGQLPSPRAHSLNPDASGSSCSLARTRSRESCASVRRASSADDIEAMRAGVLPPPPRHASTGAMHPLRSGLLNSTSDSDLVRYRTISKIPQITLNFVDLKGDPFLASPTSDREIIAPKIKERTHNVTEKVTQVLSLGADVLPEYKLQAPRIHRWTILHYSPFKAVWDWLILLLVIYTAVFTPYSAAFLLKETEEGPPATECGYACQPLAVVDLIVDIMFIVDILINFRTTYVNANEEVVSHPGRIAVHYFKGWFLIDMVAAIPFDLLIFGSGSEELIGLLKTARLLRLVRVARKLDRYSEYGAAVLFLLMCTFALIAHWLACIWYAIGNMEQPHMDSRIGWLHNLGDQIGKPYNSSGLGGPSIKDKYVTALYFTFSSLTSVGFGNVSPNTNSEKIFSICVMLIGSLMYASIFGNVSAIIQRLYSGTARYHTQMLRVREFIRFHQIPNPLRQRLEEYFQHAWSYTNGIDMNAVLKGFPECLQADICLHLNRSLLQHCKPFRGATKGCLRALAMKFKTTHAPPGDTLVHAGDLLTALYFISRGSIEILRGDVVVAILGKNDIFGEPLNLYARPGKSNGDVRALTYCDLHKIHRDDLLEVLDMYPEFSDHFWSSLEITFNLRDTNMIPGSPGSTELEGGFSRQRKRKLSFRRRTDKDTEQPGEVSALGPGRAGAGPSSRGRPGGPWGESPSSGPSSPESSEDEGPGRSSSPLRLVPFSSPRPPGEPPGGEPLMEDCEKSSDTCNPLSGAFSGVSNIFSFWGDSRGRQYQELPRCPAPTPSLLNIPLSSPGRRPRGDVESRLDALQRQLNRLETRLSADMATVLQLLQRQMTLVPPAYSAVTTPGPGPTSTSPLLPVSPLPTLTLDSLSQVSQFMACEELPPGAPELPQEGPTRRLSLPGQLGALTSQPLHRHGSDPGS

SMILES	hERG current change (%, negative = inhibition) at 10uM [%]
Cc1nc2ccccc2n1C(=O)c1ccc(Cl)cc1[N+](=O)[O-]	-4.4
COCCOC(=O)c1c(N)n(Cc2ccc(OC)cc2)c2nc3ccccc3nc12	-75.4
CCOc1ccc(NC(=O)Nc2cccnc2)cc1	-23.3
Cc1cc(C(=O)Nc2nnc(C3CCCCC3)s2)cs1	-5.46
COc1ccc(N2C3=[N+](CC2(C)O)c2ccccc2CC3)cc1.[Br-] (centres unmarked)	-44.3
CC1(C)CCCN(C(=O)N2c3ccccc3Sc3ccccc32)C1	9.06
Nc1cc(S(=O)(=O)Nc2ccc(Cl)cc2)ccc1N1CCOCC1	5.33
CCC(=O)c1ccccc1OCCCCn1cncn1.O=C(O)C(=O)O	4.82
CCn1cc(C2=NOC(C(=O)Nc3ccc4c(c3)OCO4)C2)c(C)n1 (centres unmarked)	10.5
NNC(=O)CSCc1nc(-c2ccccc2)cs1	6.08
Cc1oc(-c2cc(F)cc(F)c2)nc1CN1CCN(C(=O)c2ccco2)CC1	-40.5
C/C(CC(=O)NC1CCCCC1)=N\NC(=O)COc1ccc(C)cc1Br	-22.8
COc1ccc(CNC(=O)c2cccnc2Sc2ccc(C)c(C)c2)cc1	3.63
Cc1cc(C(=O)CS(=O)(=O)c2ccc(F)cc2)cc(C)c1O	4.3
CC(C)OCC(O)Cn1c(N2CCCC2)nc2c1c(=O)n(C)c(=O)n2C (centres unmarked)	13.6
COc1ccc(CC(=O)N(Cc2cc3cc(OC)ccc3[nH]c2=O)C(C)C)cc1	-39
COC(=O)CC(N)c1ccc(OC)c2ccccc12.Cl (centres unmarked)	-18.8
NC(=S)N/N=C/c1ccc(-c2cc(Cl)c(Cl)cc2Cl)o1	15.5
O=C(NCCCN1CCOCC1)c1onc(CSc2ccccn2)c1C(=O)NCCCN1CCOCC1	8.13
COC(=O)C1=NN(c2cccc3ccccc23)C2C(=O)N(c3ccccc3OC)C(=O)C12 (centres unmarked)	4.78
N#Cc1ccc(NC(=O)CSc2cn[nH]n2)cc1	24.4
CC(CC(=O)NCc1cccnc1)c1ccccc1 (centres unmarked)	10.6
O=C(CCSc1nc(-c2ccco2)cc(C(F)(F)F)n1)NCc1cccs1	-12.2
Oc1c(Cl)cc(Cl)cc1/C=N/Nc1ncc(Br)cn1	-0.796
CC(OC(=O)c1cccs1)C(=O)NC1CC1 (centres unmarked)	-5.98
Cn1c(=O)oc2cc(S(=O)(=O)Nc3ccc(Cl)cc3)ccc21	14.7
